This note sets out measurements from publication PMC2663385 (Nature cell biology, 2009).

The data set deals with the molecule itself. The data set can be described thus: SEC-MALS. (SEC sorts molecules by how far they enter the pores of the column.)

B1: STIM1([…]) (domain or fragment)
chain: not shown
What is called stoichiometry N is the number of molecules, sites or subunits per partner or assembly. Consider B1, for which the “stoichiometry N” value stood at 2.
